# Test results taken from publication PMC4336329 (PLoS ONE, 2015).
# In all, about 310,000 compounds went through this assay and about 14,000 (4.5%) showed an effect of 50% or more. Effects have a minus sign here. The list shows a part of the results.
# Biological target: human ether-à-go-go-related gene (hERG) potassium channel (human, UniProt Q12809)
# Experiment: primary screen, population patch clamp on CHO cells stably expressing hERG
# 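Note: peak tail current of the secondary pulse compared with the same well before compound.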
# human ether-à-go-go-related gene (hERG) potassium channel, sequence (Q12809 whole entry, looked up): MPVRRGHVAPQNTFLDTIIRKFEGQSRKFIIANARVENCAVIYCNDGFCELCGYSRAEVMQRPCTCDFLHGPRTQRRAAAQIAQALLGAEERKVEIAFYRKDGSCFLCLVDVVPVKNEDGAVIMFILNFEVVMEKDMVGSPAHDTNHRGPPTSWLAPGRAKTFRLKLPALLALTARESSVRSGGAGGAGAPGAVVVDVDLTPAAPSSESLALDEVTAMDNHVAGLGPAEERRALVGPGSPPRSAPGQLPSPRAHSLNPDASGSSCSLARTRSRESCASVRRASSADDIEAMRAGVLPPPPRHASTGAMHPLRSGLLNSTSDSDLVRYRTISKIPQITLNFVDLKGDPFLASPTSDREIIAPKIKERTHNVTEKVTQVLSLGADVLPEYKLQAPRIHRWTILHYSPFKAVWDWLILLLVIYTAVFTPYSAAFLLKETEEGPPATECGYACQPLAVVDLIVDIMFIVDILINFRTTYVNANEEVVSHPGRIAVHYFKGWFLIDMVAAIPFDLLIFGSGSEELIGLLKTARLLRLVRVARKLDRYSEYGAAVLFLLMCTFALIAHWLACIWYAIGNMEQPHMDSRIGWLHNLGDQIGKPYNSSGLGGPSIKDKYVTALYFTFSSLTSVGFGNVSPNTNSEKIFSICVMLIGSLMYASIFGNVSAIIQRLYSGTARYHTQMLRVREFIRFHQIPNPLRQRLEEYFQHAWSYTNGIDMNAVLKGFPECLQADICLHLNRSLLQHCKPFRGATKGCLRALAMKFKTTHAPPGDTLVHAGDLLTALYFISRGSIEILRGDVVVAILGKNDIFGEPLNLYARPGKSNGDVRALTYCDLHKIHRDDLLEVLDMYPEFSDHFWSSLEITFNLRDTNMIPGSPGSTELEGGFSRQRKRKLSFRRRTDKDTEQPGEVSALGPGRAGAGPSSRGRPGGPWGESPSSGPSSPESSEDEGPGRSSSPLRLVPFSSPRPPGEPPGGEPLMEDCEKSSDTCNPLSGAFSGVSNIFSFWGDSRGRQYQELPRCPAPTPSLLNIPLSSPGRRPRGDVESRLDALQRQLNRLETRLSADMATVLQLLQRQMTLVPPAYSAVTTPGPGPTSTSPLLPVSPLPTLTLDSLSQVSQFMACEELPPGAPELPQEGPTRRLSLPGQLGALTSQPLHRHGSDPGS
row,SMILES,"hERG current change (%, negative = inhibition) at 10uM [%]"
1,CCC(=NCc1cc(OC)cc(OC)c1)c1c(O)[nH]c(=O)[nH]c1=O,-7.6
2,O=C(COC(=O)c1ccc([N+](=O)[O-])cc1)NC1CCCC1,3.77
3,O=C(NCC1CCN(C(=O)c2ccc([N+](=O)[O-])cc2)CC1)C(=O)Nc1ccccc1,-36.8
4,Cl.OC1(CNCc2ccccc2)C2CC3CC(C2)CC1C3 (stereo not drawn),10.4
5,CCOc1ccc(/C=N/Nc2nncc(-c3ccccc3)n2)cc1OC,-24.4
6,Cc1onc(-c2ccccc2)c1C(=O)Nc1ccc(-c2nnc3n2CCCCC3)cc1,5.54
7,CC(C(=O)Nc1ccccc1-c1ccccc1)N1CCN(Cc2ccccc2)CC1 (stereo not drawn),-72.2
8,CC(=O)N(Cc1cc2c(C)cc(C)cc2[nH]c1=O)C1CCCCC1,8.13
9,CC(=O)Nc1ccc(S(=O)(=O)Nc2nc3ccccc3nc2-n2ccc(=NC(=O)c3ccc(F)cc3)cc2)cc1,-8.39
10,O=C(C[n+]1cc(-c2ccc(Cl)c(Cl)c2)n2c1CCC2)OCc1ccccc1.[Br-],-37.6
11,Cn1c(N)c(C(=O)COC(=O)C2(c3ccc(Cl)cc3)CCCC2)c(=O)n(C)c1=O,10.4
12,CCOc1ccc(NC(=O)CCn2c(=O)[nH]c3ccsc3c2=O)cc1,12.1
13,CCC1(CC)Cc2ccccc2C(Nc2c(C)n(C)n(-c3ccccc3)c2=O)=N1,-7.53
14,O=C(NCc1ccccc1)c1ccc(OC2CSC2)cc1,16.6
15,CCOC(=O)c1cc(S(=O)(=O)NC2CCN(C(=O)OCC)CC2)cn1C,-2.54
16,COc1ccc(Cc2nnc(SC)[nH]c2=O)cc1OC,9.63
17,O=c1[nH]c2ccc([N+](=O)[O-])cc2nc1/C=C(\O)c1ccccc1,16.8
18,Cc1ccc2nc(NCc3ccccc3)c(C#N)cc2c1,-9.93
19,CCC(=O)c1ccc(N2CCN(C(=O)c3cc([N+](=O)[O-])ccc3F)CC2)c(F)c1,-42.9
20,O=C(O)CSc1nnc(-c2ccccc2)c(-c2ccccc2)n1,15
21,Cc1ccc(NC(=S)/N=C(\N)Nc2nc(C)c3cc(C)c(C)cc3n2)cc1C,6.12
22,CCOc1cccc(N2C(=O)CC(=O)NC2=O)c1,1.22

row,SMILES,"hERG current change (%, negative = inhibition) at 10uM [%]"
1,CCCNC(=O)NC(=O)CSc1cccc(C(F)(F)F)c1,11.1
2,COc1ccc(-n2nc(C(=O)NCC(=O)N3CCN(c4ccccn4)CC3)c3ccccc3c2=O)cc1Cl,2.58
3,CC(C)N(Cc1ccccc1)C(=O)c1ccc2nsnc2c1,1.98
4,CCOC(=O)/C(=C\c1ccccc1)C(=O)c1cc(C(C)=O)c(Nc2ccccc2)s1,-4.85
5,Cc1c(C(=O)c2ccc(F)cc2F)c2ccccn2c1CCC#N,0.824
6,Cc1cc(Nc2ccc(F)cc2Cl)n2nc(C)nc2n1,-8.79
7,Cc1ccc2nc(C(Cl)(Cl)Cl)nc(N/N=C/c3ccncc3)c2c1,24
8,COc1ccc(C)cc1Cn1nnc2ccccc21,-4.34
9,COc1ccc(OC)c(C2=NOC(C(=O)NCC3CCCO3)C2)c1 (stereo not drawn),4.2
10,COc1ccccc1NC(=O)N1CCCC1C(=O)NCCc1ccccc1 (stereo not drawn),16.5
11,COc1cccc(C(=O)COC(=O)C2CC(=O)N(c3ccc(Oc4ccccc4OC)cc3)C2)c1 (stereo not drawn),-4.07
12,Cc1onc(-c2ccccc2Cl)c1C(=O)NCCN1CCOCC1,9.41
13,CCN(CC)S(=O)(=O)c1ccc2c(c1)N(CC(=O)NCc1ccccn1)C(=O)CO2,-7.41
14,Cn1c(CCNC(=O)c2ccco2)nc2cc(NC(=O)NC3CCCCC3)ccc21,0.679
15,COC(=O)CCC(=O)OC1(C)C(=O)C2=CN(c3ccccc3)C(c3ccc(OC)cc3)=CC2=C(Br)C1=O (stereo not drawn),6.51
16,COc1ccccc1OCC(=O)NNc1c2ccccc2nc2ccccc12,-7.43
17,CCOC(=O)c1[nH]c2cc(OC)c(OC)cc2c1NC(=O)CN1CCN(c2ccc(OC)cc2)C(C)C1 (stereo not drawn),-17.5
18,N#CCc1nn(-c2ccc(Cl)cc2)c(N)c1C#N,0.795
19,O=C(CCCN1C(=O)S/C(=C\c2ccccc2)C1=O)NNC(=O)c1ccccc1O,14.2
20,CCN(CC)CCn1c(NCc2ccccn2)nc2ccccc21.Cl,-34.4
21,COc1ccc(CN2CCSCC2)cc1C,7.71
22,COc1ccc(CCNC(=O)C2C3CCC(C3)C2C(=O)O)cc1OC (stereo not drawn),18.4

row,SMILES,"hERG current change (%, negative = inhibition) at 10uM [%]"
1,O=C(NCc1ccccc1)c1ccc2c(c1)OCCO2,9.1
2,COc1ccc(N2C(=O)CC(c3ccccc3)CC2=O)cc1,16.7
3,CC1(C)Cc2c(C#N)c(SCC(=O)O)nc(N3CCOCC3)c2CO1,22.2
4,O=C(CCNS(=O)(=O)c1cccs1)N1CCN(c2cccc(Cl)c2)CC1,-10.3
5,COc1ccc(CNC(=O)COc2cc3c(c4oc(=O)cc(C)c24)CCC(C)(C)O3)cc1,-7.99
6,CCCC(=O)NC(=S)Nc1cccc(NC(=O)c2ccccc2)c1,-1.54
7,Cn1c(=O)c2c(nc(Oc3ccc(-c4ccccc4)cc3)n2C)n(C)c1=O,-3.81
8,CS(=O)(=O)N(CC(=O)NCCSC1CCCCC1)c1cccc(F)c1,1.25
9,CC(=O)Nc1ccc2[nH]c3ccccc3c2c1,-1.66
10,COc1cc(Cl)ccc1OCc1cc(C(=O)NC2CCc3ccccc32)no1 (stereo not drawn),12.1
11,Cc1ccc(-c2nnc(-c3ccccc3)o2)cc1Br,7.16
12,Cc1onc(-c2ccccc2)c1C(=O)c1ccccc1,3.87
13,O=S1(=O)CCOCCCN1Cc1cccc(F)c1,9.64
14,O=c1c2ccccc2nc2n1CCC2,13.6
15,Cc1ccc(OCCN2CCN(C(=O)CCC(=O)Nc3nnc(C(C)C)s3)CC2)cc1,-1.46
16,CC1CCCN(S(=O)(=O)c2ccc(C(=O)Nc3sc4c(c3C(N)=O)CCN(C)C4)cc2)C1 (stereo not drawn),-4.95
17,Cc1cc(C)c(NC(=O)CNC(=O)c2ccccc2SCC(=O)N2CCCC2)c(C)c1,13.9
18,CCn1c(C)nc2c(C)[n+](CC(=O)c3ccc(Br)cc3)ccc21.[Br-],11.5
19,CCN(C(=O)c1ccco1)c1nnc(-c2cccnc2)s1,6.86
20,Cc1c(C(=O)Nc2ccccc2)c2cc(O)ccc2n1Cc1ccccc1,4.2
21,O=C(CCNC(=O)c1ccco1)Nc1ccccc1OC(F)F,10.4
22,CC(=O)Oc1ccccc1C(=O)Nc1ccccc1C(=O)N1CCCCC1,-6.86

row,SMILES,"hERG current change (%, negative = inhibition) at 10uM [%]"
1,COc1ccc(Cl)cc1NC(=O)[C@@]1(CC(=O)O)CC(/C=C/c2ccccc2)=NO1,26.3
2,CC1=Nc2ccccc2/C1=C/c1c(O)[nH]c(=O)[nH]c1=O,11
3,CCOC(=O)C1CCCN(C(=O)Cn2sc3nc(C)cc(C)c3c2=O)C1 (stereo not drawn),4.37
4,Cc1ccc(S(=O)(=O)N2CCN(C(=O)COC(=O)/C=C/c3ccccc3)CC2)c(C)c1,-7.67
5,O=C(NCc1ccco1)c1c(F)cccc1Cl,9.04
6,C/C(=N\NC(=O)c1cccc(S(=O)(=O)N2CCCC2)c1)c1ccccc1F,8.25
7,COc1ccc(-c2oc(=O)c3cc(OC)c(OC)cc3c2C(F)(F)F)cc1,23.7
8,COc1ccccc1NC(=O)NCCCN1CCN(c2cccc(Cl)c2)CC1,-73.7
9,CC(C)CCOc1ccc(C2(C)NC(=O)NC2=O)cc1 (stereo not drawn),8.06
10,O=C(O)C(=O)O.O=C(c1ccccc1)c1ccc(OCC(O)CNCc2ccc(Cl)cc2)cc1 (stereo not drawn),-66.6
11,Nc1nc2n(n1)C(c1cccc(Br)c1)CC(c1ccccc1)N2 (stereo not drawn),-14.1
12,O=C(O)C1CC(O)CN1c1nc(Cl)ccc1[N+](=O)[O-] (stereo not drawn),8.17
13,CC1CN(C(=O)c2cc3c(s2)CCC3)CC(C)O1 (stereo not drawn),-9.56
14,O=C(Nc1ccc(NC(=S)NC(=O)c2ccccc2Cl)cc1)c1cccc(Cl)c1,12.8
15,Cc1ccc(NC(=S)NNC(=O)c2nn(C)cc2Cl)cc1,7.28
16,O=C1NC(c2cc3c(cc2Cl)OCO3)Oc2ccccc21 (stereo not drawn),-12.7
17,COc1ccc(C(C)=O)cc1CC(C(=O)c1ccccc1)N(C)C.Cl (stereo not drawn),5.17
18,CC(=O)N1CCN(C(=S)c2ccc(N(C)C)cc2)CC1,-0.806
19,Cc1ccc(S(=O)(=O)N(C)C)cc1NC(=O)c1cc(=O)[nH]c2ccccc12,11.9
20,CCc1nn(CCCC(=O)NCc2ccco2)c(=O)c2cc3occc3n12,-14
21,Cc1cccc(N2CCN(CC(=O)Nc3ccc(-n4cnnn4)cc3)CC2)c1C,12.8
